What all share (test): two-hybrid; LexA BD fusions (pLexA) and B42 AD fusions (pB42AD) in yeast EGY48; blue colour on 2% Gal/1% raffinose/SD/-Ura/-His/-Trp/-Leu/X-β-Gal medium; images after 3 days at 30°C
For assay [1], the target named is T1, EGL3 (Arabidopsis thaliana) (UniProt Q9CAD0).
T1 sequence: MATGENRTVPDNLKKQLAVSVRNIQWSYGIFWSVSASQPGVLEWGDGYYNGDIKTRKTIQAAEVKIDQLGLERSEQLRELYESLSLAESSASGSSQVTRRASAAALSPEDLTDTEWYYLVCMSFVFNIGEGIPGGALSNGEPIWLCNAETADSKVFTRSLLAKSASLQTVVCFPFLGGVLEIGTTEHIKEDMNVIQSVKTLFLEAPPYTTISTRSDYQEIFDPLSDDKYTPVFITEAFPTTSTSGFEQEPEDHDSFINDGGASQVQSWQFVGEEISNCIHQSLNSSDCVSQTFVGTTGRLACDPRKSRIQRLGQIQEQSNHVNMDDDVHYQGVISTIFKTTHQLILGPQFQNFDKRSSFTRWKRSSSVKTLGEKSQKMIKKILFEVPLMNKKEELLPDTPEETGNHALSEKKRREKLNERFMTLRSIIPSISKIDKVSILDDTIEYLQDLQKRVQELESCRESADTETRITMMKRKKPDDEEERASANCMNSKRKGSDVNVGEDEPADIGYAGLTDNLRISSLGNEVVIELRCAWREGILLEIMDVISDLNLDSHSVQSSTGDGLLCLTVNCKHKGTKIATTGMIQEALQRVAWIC

The chains behind the UniProt entries cited, without tags or fusion partners.
UniProt O49687: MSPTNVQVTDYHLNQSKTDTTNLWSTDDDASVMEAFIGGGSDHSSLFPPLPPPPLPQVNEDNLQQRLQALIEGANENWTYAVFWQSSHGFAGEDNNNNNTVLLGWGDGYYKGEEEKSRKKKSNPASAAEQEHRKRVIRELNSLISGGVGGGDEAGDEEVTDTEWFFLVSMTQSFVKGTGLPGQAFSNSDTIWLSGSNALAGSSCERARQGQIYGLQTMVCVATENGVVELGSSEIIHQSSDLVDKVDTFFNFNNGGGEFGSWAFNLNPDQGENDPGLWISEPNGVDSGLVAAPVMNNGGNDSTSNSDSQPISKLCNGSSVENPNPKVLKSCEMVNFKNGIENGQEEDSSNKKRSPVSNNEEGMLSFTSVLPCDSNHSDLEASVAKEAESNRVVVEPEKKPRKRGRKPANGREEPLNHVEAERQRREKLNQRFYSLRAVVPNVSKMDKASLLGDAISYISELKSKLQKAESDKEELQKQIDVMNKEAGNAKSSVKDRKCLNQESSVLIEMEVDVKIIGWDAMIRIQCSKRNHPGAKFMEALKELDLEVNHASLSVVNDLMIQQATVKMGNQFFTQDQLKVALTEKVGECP
UniProt Q8LBM2: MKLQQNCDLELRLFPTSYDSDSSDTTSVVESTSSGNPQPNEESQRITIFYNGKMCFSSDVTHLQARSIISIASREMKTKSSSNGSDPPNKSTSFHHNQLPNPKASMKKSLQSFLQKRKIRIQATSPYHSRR
UniProt O23487: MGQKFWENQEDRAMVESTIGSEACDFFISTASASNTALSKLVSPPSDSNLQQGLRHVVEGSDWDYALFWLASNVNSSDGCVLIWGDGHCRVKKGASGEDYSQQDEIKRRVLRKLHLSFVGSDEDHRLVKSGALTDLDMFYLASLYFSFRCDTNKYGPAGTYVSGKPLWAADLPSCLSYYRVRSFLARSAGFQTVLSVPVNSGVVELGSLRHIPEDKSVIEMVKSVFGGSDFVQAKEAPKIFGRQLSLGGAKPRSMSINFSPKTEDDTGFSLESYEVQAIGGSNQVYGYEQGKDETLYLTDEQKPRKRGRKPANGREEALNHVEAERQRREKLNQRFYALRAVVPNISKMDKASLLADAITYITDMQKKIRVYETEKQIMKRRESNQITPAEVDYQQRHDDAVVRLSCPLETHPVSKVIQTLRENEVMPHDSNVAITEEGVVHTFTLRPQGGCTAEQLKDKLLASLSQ
UniProt Q9LNJ5: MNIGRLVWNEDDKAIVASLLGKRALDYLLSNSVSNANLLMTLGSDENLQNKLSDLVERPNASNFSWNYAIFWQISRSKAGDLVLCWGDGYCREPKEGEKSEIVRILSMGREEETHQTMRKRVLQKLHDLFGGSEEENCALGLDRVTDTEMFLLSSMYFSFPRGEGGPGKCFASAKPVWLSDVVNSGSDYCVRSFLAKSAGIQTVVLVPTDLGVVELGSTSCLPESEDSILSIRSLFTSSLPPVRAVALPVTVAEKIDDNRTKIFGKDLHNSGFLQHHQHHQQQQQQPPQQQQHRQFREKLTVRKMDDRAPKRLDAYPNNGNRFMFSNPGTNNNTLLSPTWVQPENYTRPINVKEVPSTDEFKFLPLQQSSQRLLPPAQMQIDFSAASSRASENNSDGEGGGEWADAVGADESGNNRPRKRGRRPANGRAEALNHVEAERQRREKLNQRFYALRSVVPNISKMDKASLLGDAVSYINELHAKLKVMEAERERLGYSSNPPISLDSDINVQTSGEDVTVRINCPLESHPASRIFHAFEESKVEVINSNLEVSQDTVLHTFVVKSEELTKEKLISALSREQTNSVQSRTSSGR
UniProt Q9ZPY8: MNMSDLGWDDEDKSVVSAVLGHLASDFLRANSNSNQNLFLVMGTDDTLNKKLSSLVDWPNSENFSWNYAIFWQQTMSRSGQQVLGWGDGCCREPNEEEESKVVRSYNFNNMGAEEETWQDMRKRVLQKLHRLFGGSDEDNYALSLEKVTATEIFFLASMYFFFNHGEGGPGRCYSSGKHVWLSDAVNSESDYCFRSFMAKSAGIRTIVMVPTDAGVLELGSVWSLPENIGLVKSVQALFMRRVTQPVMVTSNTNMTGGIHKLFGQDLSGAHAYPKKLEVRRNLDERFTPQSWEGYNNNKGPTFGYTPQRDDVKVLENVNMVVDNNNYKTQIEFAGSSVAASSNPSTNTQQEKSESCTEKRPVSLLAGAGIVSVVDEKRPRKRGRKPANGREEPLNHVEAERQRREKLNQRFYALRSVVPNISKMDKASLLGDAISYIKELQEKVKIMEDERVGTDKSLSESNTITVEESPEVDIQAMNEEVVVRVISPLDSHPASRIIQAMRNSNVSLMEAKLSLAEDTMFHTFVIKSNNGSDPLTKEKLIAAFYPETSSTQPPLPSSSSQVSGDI

For assay [2], the target named is T2, GL1 (Arabidopsis thaliana) (UniProt P27900).
T2 sequence: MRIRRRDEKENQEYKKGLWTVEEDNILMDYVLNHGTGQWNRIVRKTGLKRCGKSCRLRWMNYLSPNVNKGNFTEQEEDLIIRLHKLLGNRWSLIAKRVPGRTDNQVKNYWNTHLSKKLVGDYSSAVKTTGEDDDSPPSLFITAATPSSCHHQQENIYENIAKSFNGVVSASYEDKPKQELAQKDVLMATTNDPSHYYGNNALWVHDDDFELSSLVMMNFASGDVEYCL

For assay [3], the target named is T3, JAZ11 (Arabidopsis thaliana) (UniProt Q9M246).
T3 sequence: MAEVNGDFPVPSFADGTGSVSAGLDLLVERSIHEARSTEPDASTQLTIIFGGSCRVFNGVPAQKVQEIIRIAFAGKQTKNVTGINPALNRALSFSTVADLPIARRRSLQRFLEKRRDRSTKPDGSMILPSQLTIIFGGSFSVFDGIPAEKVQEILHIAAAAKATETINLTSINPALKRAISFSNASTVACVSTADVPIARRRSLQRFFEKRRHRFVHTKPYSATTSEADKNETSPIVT

Assay [4] addresses MYC4 (Arabidopsis thaliana) (UniProt O49687).
The target of assay [5] is JAZ8 (Arabidopsis thaliana) (UniProt Q8LBM2).

Results are given in words; binding and its absence hold for the method and conditions named. Some entries that bind do so weakly or less than the wild type.

Regarding bHLH3 (from UniProt O23487 1-467), the binding result in assay [1] is “no binding”; in assay [2], “no binding”; in assay [3] it was “binds”; in assay [4], “no binding”.
With bHLH13 (from UniProt Q9LNJ5 1-590), the binding entry is reported as “no binding” in assay [1]; “no binding” in assay [2]; “binds” in assay [3]; “binds” in assay [5]; “no binding” in assay [4].
In the case of bHLH17 (from UniProt Q9ZPY8 1-566), the binding result in assay [1] was “no binding”; in assay [2], “no binding”; in assay [3], “binds”; in assay [5], “binds”; in assay [4] it was “no binding”.

The record behind these values is paper PMC3723532.
